Results: PubChem BioAssay (NCATS)
Inconclusive means that the source gave no clear call. Such entries were picked first, then a sample of the others. For some assays here: Potencies of inconclusive entries are doubtful fits and often do not repeat. Active and inactive are the calls of the source. Unless noted, calls follow the shape of the dose curve; as a rule, active = well fitted curve in the direction sought with a large enough effect; inconclusive = small, poorly fitted or top-dose-only effect, or another doubt; inactive = no such curve, though single readings can be large; an effect the other way counts as inactive or inconclusive.

Key:
[1] = NFAT Signaling Pathway (AID 444; active = well fitted curve in either direction with a large enough effect, not every such curve was filed as active; inconclusive = small, poorly fitted or top-dose-only effect, or another doubt;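 also: carbachol stimulus at about its EC50 of 1 µM final; % is scaled to controls: 0 for no effect and ±100 for the full control effect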); conditions: Jurkat NFAT-bla M1, carbachol, beta-lactamase ratio, 5 h; at 7.69 µM (top of the series) unless noted
Outline: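 Jurkat cells with NFAT-driven β-lactamase reporter and co-expressed M1 receptor, stimulated with carbachol (final 1 uM, ~EC50), compound titration, 5 h at 37 °C. CCF4 loaded 1 h at RT; 460/530 nm ratio gave %activity and AC50.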

[2] = Stat Signaling Pathway (AID 446; active = well fitted curve in either direction with a large enough effect, not every such curve was filed as active; inconclusive = small, poorly fitted or top-dose-only effect, or another doubt;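 also: ME-180 cervical cancer cells given 40 pM IL-6 alongside compound; SIE-controlled beta-lactamase reporter measured as 460/530 nm FRET emission ratio; top concentration of the series differs between compounds; % is scaled to controls: 0 for no effect and ±100 for the full control effect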); conditions: ME-180 SIE beta-lactamase reporter, IL-6 stimulated, 5 h; at 7.69 µM (top of the series) unless noted
Outline: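 ME-180 SIE-bla cells; overnight plating; cpd + IL-6 40 pM, 5 h, 37 C; LiveBLAzer 2.5 h RT; 460/530 nm emission ratio. Normalized to 300 pM IL-6 and 125 nM JAK inhibitor controls.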

[3] = biological target: Cytochrome P450 3A4 (Homo sapiens) (UniProt P08684); test: qHTS Assay for Activators of Cytochrome P450 3A4 (AID 885); conditions: recombinant CYP3A4, Luciferin-PPXE luminescence, 60 min; series mostly up to 57.1 µM; also: potency is read from the fitted curve at half-maximal effect; nearly all actives have a fitted effect of over 65% in size
UniProt P08684, sequence (P08684 whole entry, looked up): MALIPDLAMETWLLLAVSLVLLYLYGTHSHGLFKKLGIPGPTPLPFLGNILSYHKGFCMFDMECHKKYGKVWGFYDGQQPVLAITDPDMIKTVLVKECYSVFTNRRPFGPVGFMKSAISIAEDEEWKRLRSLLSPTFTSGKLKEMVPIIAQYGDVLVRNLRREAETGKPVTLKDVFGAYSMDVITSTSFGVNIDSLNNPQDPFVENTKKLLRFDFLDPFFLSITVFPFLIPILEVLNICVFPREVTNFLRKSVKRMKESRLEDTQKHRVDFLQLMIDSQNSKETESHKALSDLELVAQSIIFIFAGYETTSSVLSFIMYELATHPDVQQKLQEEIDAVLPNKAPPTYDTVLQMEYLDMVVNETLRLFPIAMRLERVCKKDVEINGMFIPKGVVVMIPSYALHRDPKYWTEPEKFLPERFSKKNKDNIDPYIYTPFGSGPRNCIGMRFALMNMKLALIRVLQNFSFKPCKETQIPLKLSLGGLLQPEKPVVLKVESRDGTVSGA
Outline: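 20nM CYP3A4 + 25uM Luciferin-PPXE (=KM), 200mM KPO4; cpd 10 min RT; NADPH regen, 60 min RT; stop w/ detection buffer, 20 min; luminescence. Normalized to 57 uM ketoconazole.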

[4] = qHTS Assay for Identification of Small Molecule Antagonists for NFkB Signaling Pathway (AID 895; active = well fitted inhibition curve with a large enough effect in the signal ratio, with a control signal flat, not every such curve was filed as active; inconclusive = small, poorly fitted or top-dose-only effect, or effect the other way, or a change in a side signal; the % refers to the signal ratio; also: % is scaled to controls: 0 for no effect and ±100 for the full control effect); conditions: NFkB beta-lactamase reporter cells, FRET ratio 460/530, stimulated with 10 pM TNF alpha; activity change, negative = inhibition: at 38.3 µM (top of the series)
Outline: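 ME-180 NFkB-bla cells (beta-lactamase under NFkB response element), plated overnight, treated with compound then 10 pM TNF alpha (about EC50) for 5 hrs at 37 C. LiveBLAzer FRET read at 460/530 nm emission, 405 nm excitation.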

[5] = qHTS Assay for Identification of Small Molecule Antagonists for Thrombopoietin (TPO) Signaling Pathway (AID 918); conditions: TPO-dependent cell signaling reporter, antagonist mode; activity change, negative = inhibition: at 38.5 µM (top of the series); also: nearly all actives have a fitted effect of over 60% in size
Outline: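 Murine Ba/F3 cells expressing human TPO receptor and a Glycoprotein IIb promoter-luciferase reporter, IL-3-starved overnight, treated with compound plus TPO at EC50 (26 pM final). After 24 h at 37 C, luminescence read to detect inhibitors.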

[6] = qHTS Assay for Lipid Storage Modulators (AID 1519; calls by dose curve; also: % is scaled to controls: 0 for no effect and ±100 for the full control effect); conditions: Drosophila S3 cells, BODIPY lipid droplet/cell ratio, laser cytometry, cells loaded with oleic acid; activity change, negative = inhibition: at 57.5 µM (top of the series) unless noted
Outline: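 Cells seeded at 5,000 per well were treated with compounds over a concentration series and loaded with oleic acid (400 uM, as added). Lipid droplet fluorescence (488 nm excitation, 500-530 nm channel) was read by laser-scanning cytometry and normalized to 20 uM Triacsin C.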

[7] = biological target: Endonuclease 4 (Escherichia coli (strain K12)) (UniProt P0A6C1); test: Counterscreen for APE1 Inhibitors: qHTS Validation Assay for Inhibitors of Endonuclease IV (AID 1708); also: potency is read from the fitted curve at half-maximal effect; conditions: E. coli endonuclease IV, DNA cleavage fluorescence; series mostly up to 57.1 µM
Outline: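 E. coli EndoIV at 2 nM final, preincubated 15 min at room temperature with compound, then 50 nM TAMRA/BHQ-2 THF abasic-site duplex added. Buffer: 50 mM Tris-HCl pH 7.5, 50 mM NaCl, 2 mM MgCl2, 1 mM DTT, 0.01% Tween-20. Kinetic fluorescence increase, third minus first read.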

[8] = qHTS for differential inhibitors of proliferation of Plasmodium falciparum line 7G8 (AID 1815); conditions: Plasmodium falciparum 7G8 proliferation inhibition; series mostly up to 28.7 µM;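 also: potency is read from the fitted curve at half-maximal effect; parasite growth measured after three days of incubation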
[9] = qHTS for differential inhibitors of proliferation of Plasmodium falciparum line GB4 (AID 1816); conditions: Potency: Plasmodium falciparum GB4 proliferation inhibition; series mostly up to 28.7 µM;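 also: parasite growth measured after 72 h incubation; 0% = vehicle DMSO and -100% = reference inhibitor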
[10] = qHTS for differential inhibitors of proliferation of Plasmodium falciparum line W2 (AID 1883); conditions: Potency: Plasmodium falciparum W2 proliferation inhibition; series mostly up to 28.7 µM;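 also: potency is read from the fitted curve at half-maximal effect; parasites grown with compound for 72 h before lysis and staining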
[11] = qHTS Assay for Modulators of Human Peripheral Myelin Protein 22 (PMP22) Expression/Activity (AID 1967; active = well fitted curve in the direction sought with a large enough effect in the signal ratio; inconclusive = small, poorly fitted or top-dose-only effect, or effect the other way, or a change in a side signal; inactive = no such curve, though single readings can be large or run the other way; the % refers to the signal ratio;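 also: 0% = untreated cells and 100% end not stated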); conditions: Cell-based PMP22 reporter, dual-color luciferase ratio, mouse Pmp22 promoter in mouse Schwann cells; activity change (ratio): at 115 µM (top of the series), 0% = compound-free control cells
Outline: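 Mouse MSC80 Schwann line, Pmp22 promoter–CBG68 reporter, EF-alpha–CBR internal control. 24h compound exposure, 37 °C/5% CO2, DMEM + 10% FBS. Readout: corrected green/red luminescence ratio, normalized to untreated cells; concentration-response curves fitted and classified.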

[12] = biological target: Ferritin light chain (Equus caballus) (UniProt P02791); test: qHTS Validation Assay for Identification of Novel General Anesthetics (AID 2323); conditions: horse apoferritin, anesthetic-site fluorescent probe displacement; series mostly up to 76.9 µM; also: potency is read from the fitted curve at half-maximal effect
UniProt P02791, sequence (P02791 whole entry, looked up): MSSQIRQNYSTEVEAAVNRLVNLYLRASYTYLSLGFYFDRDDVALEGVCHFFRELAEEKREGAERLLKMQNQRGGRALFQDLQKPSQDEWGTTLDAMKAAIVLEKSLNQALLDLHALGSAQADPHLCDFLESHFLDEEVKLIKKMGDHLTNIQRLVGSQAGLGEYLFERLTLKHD
Outline: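 10 uM horse-spleen apoferritin + 1-AMA (50% saturated, PBS); cpd pin-transferred, 10 min RT. Ex 380/Em 535 nm endpoint. Activity normalized between free 1-AMA and 1-AMA/apoferritin; 4-parameter Hill fit of concentration-response.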

[13] = biological target: ATP-dependent DNA helicase Q1 (Homo sapiens) (UniProt P46063); test: qHTS Validation Assay for Inhibitors of RecQ-Like Dna Helicase 1 (RECQ1) (AID 2353); conditions: recombinant RECQ1 helicase DNA unwinding assay; series mostly up to 25.6 µM; also: potency is read from the fitted curve at half-maximal effect
UniProt P46063, sequence (P46063 whole entry, looked up): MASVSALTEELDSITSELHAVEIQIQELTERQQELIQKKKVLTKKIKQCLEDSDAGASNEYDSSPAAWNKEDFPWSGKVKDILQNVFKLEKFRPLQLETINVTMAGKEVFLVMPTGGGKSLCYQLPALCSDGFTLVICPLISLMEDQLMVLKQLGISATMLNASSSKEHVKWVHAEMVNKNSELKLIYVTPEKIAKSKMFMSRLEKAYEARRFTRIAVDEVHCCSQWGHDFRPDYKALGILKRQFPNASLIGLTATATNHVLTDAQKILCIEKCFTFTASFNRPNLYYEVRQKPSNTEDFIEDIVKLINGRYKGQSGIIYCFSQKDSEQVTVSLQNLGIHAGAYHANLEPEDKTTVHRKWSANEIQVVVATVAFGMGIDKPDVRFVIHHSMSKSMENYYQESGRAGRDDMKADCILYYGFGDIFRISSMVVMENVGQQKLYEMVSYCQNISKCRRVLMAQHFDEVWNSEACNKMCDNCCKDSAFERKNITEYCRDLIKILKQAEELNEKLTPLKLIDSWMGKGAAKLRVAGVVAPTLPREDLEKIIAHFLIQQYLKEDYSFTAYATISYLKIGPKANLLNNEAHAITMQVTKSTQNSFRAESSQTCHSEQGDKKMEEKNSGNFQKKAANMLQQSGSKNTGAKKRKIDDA
Outline: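 50 nM RECQ1T1 preincubated 15 min with compound in Tris pH 8.0 buffer with MgCl2, DTT, Tween-20 and 2.5 ug/ml poly(dI-dC); started with 200 nM TAMRA/BHQ-2 forked duplex and 2 mM ATP. Unwinding read as fluorescence (525/598 nm), two reads 2 h apart.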

[14] = biological target: RecQ-like DNA helicase BLM (Homo sapiens) (UniProt P54132); test: qHTS Validation Assay for Inhibitors of Bloom's syndrome helicase (BLM) (AID 2364); conditions: BLM helicase DNA unwinding, fluorescence, in vitro; series mostly up to 57.1 µM; also: potency is read from the fitted curve at half-maximal effect
Outline: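 50 nM BLM preincubated 15 min at room temperature with compound in pH 8.0 Tris buffer containing 2.5 ug/ml poly(dI-dC); started with 200 nM TAMRA/BHQ-2 forked duplex and 2 mM ATP (final). Unwinding read as TAMRA fluorescence increase, two reads 2 h apart.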

[15] = Validation screen for small molecules that induce DNA re-replication in MCF 10A normal breast cells (AID 463097); conditions: MCF 10A cells, DNA re-replication phenotype imaging; series mostly up to 46.1 µM; also: potency is read from the fitted curve at half-maximal effect; nearly all actives have a fitted effect of over 60% in size
Outline: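 250 MCF 10A cells/well; compound pin-transferred; 48 hr, 37 C, 5% CO2; Hoechst 40 min; imaged 405/500-530 nm. Hits = more high-intensity nuclei.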

[16] = biological target: Ubiquitin carboxyl-terminal hydrolase 2 (Homo sapiens) (UniProt O75604); test: qHTS Validation Assay for Inhibitors of Ubiquitin-specific Protease USP2a Using CHOP2 as the Reporter (AID 463106); conditions: USP2a cleavage of CHOP2 reporter, enzymatic; also: potency is read from the fitted curve at half-maximal effect
UniProt O75604, sequence (O75604 whole entry, looked up): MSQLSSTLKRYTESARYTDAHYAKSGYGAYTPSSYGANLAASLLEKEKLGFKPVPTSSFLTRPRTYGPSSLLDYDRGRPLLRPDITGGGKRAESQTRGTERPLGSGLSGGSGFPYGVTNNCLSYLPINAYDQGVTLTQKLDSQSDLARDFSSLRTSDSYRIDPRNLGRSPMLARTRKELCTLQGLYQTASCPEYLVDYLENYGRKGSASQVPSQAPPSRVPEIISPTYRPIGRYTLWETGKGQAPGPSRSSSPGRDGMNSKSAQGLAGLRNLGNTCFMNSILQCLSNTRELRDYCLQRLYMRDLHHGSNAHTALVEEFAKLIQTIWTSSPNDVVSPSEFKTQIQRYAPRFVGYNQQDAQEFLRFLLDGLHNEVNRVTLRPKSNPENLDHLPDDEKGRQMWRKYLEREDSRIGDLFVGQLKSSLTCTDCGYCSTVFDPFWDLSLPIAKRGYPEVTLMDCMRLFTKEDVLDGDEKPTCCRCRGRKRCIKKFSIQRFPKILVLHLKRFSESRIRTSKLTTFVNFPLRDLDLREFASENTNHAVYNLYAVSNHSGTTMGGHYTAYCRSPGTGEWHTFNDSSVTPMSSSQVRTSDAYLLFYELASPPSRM
Outline: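 USP2 core (10 nM final) was preincubated with compound 30 min at RT in pH 8.0 Tris/CaCl2/beta-ME/CHAPS buffer. Ub-CHOP2 and reporter substrate (25 nM final each) were then added, with fluorescence (Ex 485/Em 531) read after 60 min. Data were normalized to NEM full inhibition and fitted to concentration-response curves.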

[17] = biological target: ATP-dependent 6-phosphofructokinase (Trypanosoma brucei brucei) (UniProt O15648); test: qHTS Validation Assay to Find Inhibitors of T. brucei phosphofructokinase (AID 485368); also: potency is read from the fitted curve at half-maximal effect; conditions: T. brucei PFK enzyme assay, qHTS 7-point titration; series mostly up to 57.5 µM
UniProt O15648, sequence (O15648 whole entry, looked up): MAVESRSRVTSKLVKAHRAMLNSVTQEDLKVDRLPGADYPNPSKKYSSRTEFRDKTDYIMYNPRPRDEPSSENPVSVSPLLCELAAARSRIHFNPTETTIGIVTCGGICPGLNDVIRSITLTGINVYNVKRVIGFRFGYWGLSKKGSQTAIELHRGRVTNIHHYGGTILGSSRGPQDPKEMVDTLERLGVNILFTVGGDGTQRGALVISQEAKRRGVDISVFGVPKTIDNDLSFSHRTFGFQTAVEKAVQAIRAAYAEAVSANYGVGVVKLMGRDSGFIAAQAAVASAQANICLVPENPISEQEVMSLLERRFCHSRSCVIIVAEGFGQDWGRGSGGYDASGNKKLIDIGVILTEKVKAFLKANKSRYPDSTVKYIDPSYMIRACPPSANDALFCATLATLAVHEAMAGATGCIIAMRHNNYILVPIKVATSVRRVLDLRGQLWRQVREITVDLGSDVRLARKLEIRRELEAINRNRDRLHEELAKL
Outline: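 Compounds (up to 57 uM, titration series) were pinned into substrate buffer, then 1.25 nM PFK added; after 45 min at room temperature, ADP product was quantified by ADP-Glo luminescence and concentration-response curves fitted.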

[18] = biological target: Transient receptor potential cation channel subfamily V member 1 (Homo sapiens) (UniProt Q8NER1); test: HTS Assay for Compounds that Act as Enhancers of the Vanilloid Receptor 1 (AID 488979); conditions: TRPV1-expressing cells, enhancer of channel activity, stimulated with capsaicin at EC20; series mostly up to 41.7 µM; also: 0% is about no effect
UniProt Q8NER1, sequence (Q8NER1 whole entry, looked up): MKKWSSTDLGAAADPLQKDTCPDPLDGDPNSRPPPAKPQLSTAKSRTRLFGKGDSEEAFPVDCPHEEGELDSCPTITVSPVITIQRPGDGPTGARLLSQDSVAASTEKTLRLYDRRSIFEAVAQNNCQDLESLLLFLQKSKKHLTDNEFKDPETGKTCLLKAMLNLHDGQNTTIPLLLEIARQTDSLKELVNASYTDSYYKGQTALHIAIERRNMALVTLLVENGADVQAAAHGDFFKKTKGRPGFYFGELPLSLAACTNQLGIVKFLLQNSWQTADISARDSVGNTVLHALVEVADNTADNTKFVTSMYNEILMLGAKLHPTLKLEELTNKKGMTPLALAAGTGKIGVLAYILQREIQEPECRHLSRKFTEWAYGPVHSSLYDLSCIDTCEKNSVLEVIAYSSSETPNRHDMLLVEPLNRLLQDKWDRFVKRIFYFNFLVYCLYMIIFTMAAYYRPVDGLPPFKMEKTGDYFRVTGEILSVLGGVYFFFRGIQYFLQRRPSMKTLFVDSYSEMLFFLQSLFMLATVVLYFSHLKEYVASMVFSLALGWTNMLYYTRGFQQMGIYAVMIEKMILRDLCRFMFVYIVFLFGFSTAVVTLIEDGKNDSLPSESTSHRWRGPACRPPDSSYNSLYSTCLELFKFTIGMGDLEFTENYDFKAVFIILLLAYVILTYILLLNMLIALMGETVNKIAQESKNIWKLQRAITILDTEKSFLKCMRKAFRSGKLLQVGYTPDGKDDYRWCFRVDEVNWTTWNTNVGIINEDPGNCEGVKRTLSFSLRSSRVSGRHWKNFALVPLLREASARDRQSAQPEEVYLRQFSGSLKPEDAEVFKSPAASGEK
Outline: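 TRPV1 cells loaded with Fluo-8 calcium dye; compound added and Ca2+ signal (ex 480/em 520 nm) followed 3 min, then capsaicin at EC20 added and read 2 more min to detect enhancement.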

[19] = biological target: D(1A) dopamine receptor (Homo sapiens) (UniProt P21728); test: HTS Assay for Allosteric Agonists of the Human D1 Dopamine Receptor: Primary Screen for Potentiators (AID 488982); conditions: HEK293 T-REx D1 inducible cells, calcium flux, kinetic fluorescence; series mostly up to 8.37 µM; also: potency is read from the fitted curve at half-maximal effect
Outline: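 Tetracycline-induced HEK293 Trex D1 cells with forced coupling to calcium, loaded with no-wash calcium dye; kinetic fluorescence read 180 s after compound addition for agonism, then a further 180 s after an EC20 dopamine challenge for potentiation.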

[20] = biological target: Peptidyl-prolyl cis-trans isomerase NIMA-interacting 1 (Homo sapiens) (UniProt Q13526); test: qHTS Validation Assay to Find Inhibitors of Pin1 (AID 504536; active = well fitted inhibition curve with a large enough effect in the polarisation, with a control signal flat, not every such curve was filed as active; inconclusive = small, poorly fitted or top-dose-only effect, or effect the other way; the % refers to the polarisation; also: potency is read from the fitted curve at half-maximal effect); conditions: Pin1 fluorescence polarization peptide binding assay; series mostly up to 57.5 µM
UniProt Q13526, sequence (Q13526 whole entry, looked up): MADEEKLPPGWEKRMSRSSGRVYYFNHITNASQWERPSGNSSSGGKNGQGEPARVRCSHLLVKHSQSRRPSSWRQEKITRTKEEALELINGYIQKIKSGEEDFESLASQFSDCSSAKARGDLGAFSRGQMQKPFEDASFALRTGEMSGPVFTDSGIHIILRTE
Outline: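 Fluorescence polarization competition: compounds (titration) displace HiFluor-488-labeled Pin1-1b peptide from Pin1 (0.3 uM final) in pH 7.5 HEPES buffer with DTT, 10 min at room temperature; %Activity normalized to no-enzyme wells, curves fitted.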

[21] = biological target: Ubiquitin carboxyl-terminal hydrolase 1 (Homo sapiens) (UniProt O94782); test: Inhibitors of USP1/UAF1: Pilot qHTS (AID 504865); conditions: purified USP1/UAF1, Ub-rhodamine cleavage fluorescence; series mostly up to 54.9 µM;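 also: rhodamine fluorescence freed from ubiquitin-rhodamine substrate followed over time; potency is read from the fitted curve at half-maximal effect; nearly all actives have a fitted effect of over 35% in size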
UniProt O94782, sequence (O94782 whole entry, looked up): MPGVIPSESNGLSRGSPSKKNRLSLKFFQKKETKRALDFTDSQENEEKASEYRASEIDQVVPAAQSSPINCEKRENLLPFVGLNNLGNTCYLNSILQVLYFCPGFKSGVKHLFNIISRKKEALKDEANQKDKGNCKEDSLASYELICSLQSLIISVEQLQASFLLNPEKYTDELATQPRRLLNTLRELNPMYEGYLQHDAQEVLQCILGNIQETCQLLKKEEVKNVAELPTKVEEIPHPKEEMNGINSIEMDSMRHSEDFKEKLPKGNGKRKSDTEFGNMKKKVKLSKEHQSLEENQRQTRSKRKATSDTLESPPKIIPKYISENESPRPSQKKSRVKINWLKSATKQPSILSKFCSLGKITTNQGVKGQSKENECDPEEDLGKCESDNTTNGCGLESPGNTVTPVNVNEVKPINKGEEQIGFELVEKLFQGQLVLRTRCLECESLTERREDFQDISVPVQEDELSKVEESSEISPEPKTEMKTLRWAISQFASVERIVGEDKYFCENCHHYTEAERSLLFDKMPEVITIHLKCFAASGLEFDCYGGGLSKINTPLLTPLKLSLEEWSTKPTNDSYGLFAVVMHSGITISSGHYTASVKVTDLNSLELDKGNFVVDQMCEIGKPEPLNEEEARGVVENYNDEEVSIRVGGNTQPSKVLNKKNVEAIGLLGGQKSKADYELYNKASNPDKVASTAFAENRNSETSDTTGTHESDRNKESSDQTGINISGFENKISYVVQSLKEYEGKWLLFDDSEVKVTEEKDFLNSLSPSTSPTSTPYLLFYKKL
Outline: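 1nM USP1/UAF1 + cpd, 15 min RT; start w/ Ub-Rho 150nM final; kinetic FL 480/540 nm, 6 reads q60 s. Buffer 50mM HEPES pH 7.8, 0.5mM EDTA, 1mM TCEP, 0.01% Tween-20, 0.1 mg/ml BSA.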

[22] = qHTS for Activators of Parkin Expression: LOPAC Validation Assay (FLuc Reporter) (AID 720573;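 also: 0% = DMSO and 100% = positive control compounds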); conditions: Cell line, PRKN promoter firefly luciferase reporter; series mostly up to 46.1 µM
Outline: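 FLuc luminescence read-out from a neuronal line expressing a Parkin-promoter-driven coincidence reporter. Cells treated 24 h at 37 C, 5% CO2 with compounds at 7 concentrations; signal increase normalized to DMSO and positive control.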

[23] = system: Zika virus NS2B-NS3 protease (unlinked); test: Optimization of GU AMC qHTS for Zika virus inhibitors: Unlinked NS2B-NS3 protease assay (AID 1347151); conditions: recombinant ZIKV NS2B-NS3 protease, fluorogenic AMC substrate; activity change, negative = inhibition: at 52.5 µM (top of the series) unless noted; also: potency is read from the fitted curve at half-maximal effect; nearly all actives have a fitted effect of over 80% in size
Outline: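 Fluorescence read-out (340 nm ex / 450 nm em) of AMC peptide cleavage, taken immediately and after 15 min at room temperature (~20% conversion). Enzyme was the unlinked NS2B–NS3 complex at 25 nM in Tris pH 8.0 buffer.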

[24] = biological target: Single-stranded DNA cytosine deaminase (Homo sapiens) (UniProt Q9GZX7); test: Validation qHTS assay for inhibitors of Activation Induced Cytidine Deaminase (AID): AID signal (AID 1347429); conditions: Recombinant AID, FRET ssDNA deamination with UDG, fluorescence; series mostly up to 115 µM; also: potency is read from the fitted curve at half-maximal effect
UniProt Q9GZX7, sequence (Q9GZX7 whole entry, looked up): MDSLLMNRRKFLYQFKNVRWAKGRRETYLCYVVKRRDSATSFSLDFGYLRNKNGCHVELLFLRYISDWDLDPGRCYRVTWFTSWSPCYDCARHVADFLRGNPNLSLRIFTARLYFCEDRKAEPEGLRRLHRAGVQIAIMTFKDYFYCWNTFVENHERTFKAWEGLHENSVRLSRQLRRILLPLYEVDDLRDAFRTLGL
Outline: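 FRET deamination assay: 1 uM AID (4/3x stock) with UDG, compound up to 114 uM, then 250 nM DJC20/DJC23 substrate (4x stock) for 4 hr at room temperature. NaOH added, 30 min; fluorescence read 540/590 nm.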

[25] = biological target: Calcium and integrin-binding protein 1 (Homo sapiens) (UniProt Q99828); test: Validation qHTS for Identification of Calcium Integrin Binding protein 1 (CIB1) Competitor (AID 1508618); conditions: CIB1-GST / FITC-alphaIIb peptide fluorescence polarization; series mostly up to 114 µM; also: potency is read from the fitted curve at half-maximal effect
UniProt Q99828, sequence (Q99828 whole entry, looked up): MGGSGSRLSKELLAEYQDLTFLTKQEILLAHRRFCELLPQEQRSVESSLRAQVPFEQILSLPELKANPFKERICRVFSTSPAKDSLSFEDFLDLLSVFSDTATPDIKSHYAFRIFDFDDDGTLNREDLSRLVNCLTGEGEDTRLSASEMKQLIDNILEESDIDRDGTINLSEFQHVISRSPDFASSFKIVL
Outline: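 CIB1-GST (1 uM final) in 5 mM HEPES pH 7.4, 125 mM NaCl, 5 mM CaCl2, 0.01% Tween20 was preincubated 15 min at room temperature with compound (up to 114 uM), then FITC-alphaIIb peptide (100 nM) added for 15 min; fluorescence polarization read.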

[26] = Primary qHTS for small molecule stabilizers of the endoplasmic reticulum resident proteome: Secreted ER Calcium Modulated Protein (SERCaMP) assay (AID 1508630); conditions: SH-SY5Y GLuc-SERCaMP (Gaussia luciferase released on ER calcium loss) secretion, thapsigargin, luminescence; activity change, negative = inhibition: at 38.4 µM (top of the series) unless noted; also: potency is read from the fitted curve at half-maximal effect
Outline: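 GLuc-SERCaMP-expressing SH-SY5Y cells, pretreated 16 h with compound, are challenged with thapsigargin to empty ER calcium stores; after 4 h, coelenterazine is added directly to the medium and luminescence is imaged.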
Tags tell the direction and shape of the fitted curve or compound fluorescence and quenching.

CCCCCCCCCCC/C=C\C(C)(C)/C=C\CCCC(=O)O
inactive: Potency [9] | Potency [11] | Potency [18] | Potency [22]
inconclusive: activity change, negative = inhibition [1] -26.3% [inhibitor] [at 38 µM] | activity, negative = inhibition [2] -38.3% [inhibitor] [at 38 µM] | Potency [3] 39.8 µM [activator, single point] | activity change, negative = inhibition [4] -30.5% | activity change, negative = inhibition [5] -7.67% [phenotype inactive] | activity change, negative = inhibition [6] 1.02% | Potency [7] 11.2 µM [inhibitor, partial curve] | Potency [8] 14.1 µM [inhibitor, partial curve] | Potency [10] 11.2 µM [inhibitor, single point] | Potency [12] 14.1 µM [inhibitor, full curve] | Potency [13] 10 µM [inhibitor, single point] | Potency [15] 20 µM [activator, single point] | Potency [16] 23.3 µM [falling, single point] | Potency [17] 4.78 µM [falling, partial curve, poor fit] | Potency [19] 2.91 µM [activator, partial curve, poor fit] | Potency [20] 23.9 µM [falling, single point] | Potency [24] 79.4 µM [inhibitor, partial curve] | Potency [25] 56.2 µM [inhibitor, partial curve, poor fit] | Potency [26] 3.55 µM [inhibitor, partial curve]
active: Potency [14] 25.1 µM | Potency [21] 28.2 µM | Potency [23] 6.7 µM
